From PubChem BioAssay AID488969 (Vanderbilt High Throughput Screening Facility, 2010) come the findings set out here.

The full ranking holds about 110,000 compounds; the median of “z-score” is about -0.1, and the highest 2% start at about 2. This is one part of the list.

This test deals with Metabotropic glutamate receptor 8 (Rattus norvegicus) (UniProt P70579). The test can be described thus: rat mGluR8 modulators via GIRK flux, primary screen, cell-based, thallium flux, HTS (AID 488969). The settings on record: HEK293 rat mGluR8, GIRK (G protein-gated inwardly rectifying potassium channel) thallium flux, FluoZin2; at 10 µM; stronger effect = higher value; submaximal glutamate (EC20) added with thallium.
Chain of UniProt P70579 (P70579 whole entry, looked up): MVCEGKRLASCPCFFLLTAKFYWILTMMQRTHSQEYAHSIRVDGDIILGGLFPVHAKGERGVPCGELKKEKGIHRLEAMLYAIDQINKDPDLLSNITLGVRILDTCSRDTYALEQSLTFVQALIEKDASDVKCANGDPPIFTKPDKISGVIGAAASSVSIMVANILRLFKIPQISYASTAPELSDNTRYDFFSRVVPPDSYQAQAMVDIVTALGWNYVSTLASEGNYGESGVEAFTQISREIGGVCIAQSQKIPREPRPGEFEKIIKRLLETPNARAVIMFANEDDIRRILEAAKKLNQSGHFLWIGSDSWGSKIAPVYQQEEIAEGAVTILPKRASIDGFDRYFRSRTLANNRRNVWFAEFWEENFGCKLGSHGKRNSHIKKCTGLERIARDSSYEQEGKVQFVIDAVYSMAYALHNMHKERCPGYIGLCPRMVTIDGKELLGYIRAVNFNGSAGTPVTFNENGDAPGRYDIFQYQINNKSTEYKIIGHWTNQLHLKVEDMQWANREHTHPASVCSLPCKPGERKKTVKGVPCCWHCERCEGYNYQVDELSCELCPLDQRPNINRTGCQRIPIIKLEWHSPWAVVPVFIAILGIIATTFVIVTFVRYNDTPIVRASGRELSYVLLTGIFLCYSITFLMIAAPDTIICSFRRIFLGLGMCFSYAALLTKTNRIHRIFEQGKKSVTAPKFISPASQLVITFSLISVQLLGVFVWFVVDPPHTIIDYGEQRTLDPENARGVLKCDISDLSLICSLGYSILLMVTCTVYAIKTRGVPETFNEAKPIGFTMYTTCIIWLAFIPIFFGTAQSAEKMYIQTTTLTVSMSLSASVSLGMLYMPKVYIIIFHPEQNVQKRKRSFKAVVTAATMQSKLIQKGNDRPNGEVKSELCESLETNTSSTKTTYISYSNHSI
The compound `COc1cc(CCC(=O)Nc2ccc(C)c(S(=O)(=O)N(C)C)c2)cc(OC)c1OC` gave a z-score of -0.5.
Under `C/C(CC1CC2=C(CC1(C)C)C(C)(C)CCC2)=N\NC(N)=S` (stereo not given) stands 0.599; under `CC(=O)c1cc(C#N)c(SCC(=O)OC(C)C)nc1C`, -0.466; under `CC1(C)CC(=O)C2=C(C1)N(c1ccccc1)C(N)=C(C#N)C2c1cccnc1` (stereo not given), -0.394.
Under `CCOCCn1c(CN2CCN(c3ccc(OC)cc3)CC2)nc2c1c(=O)n(C)c(=O)n2C` stands -0.366; under `C/C(=N\OC(=O)c1ccc(Br)cc1)c1ccccn1`, 0.167; under `COc1ccc(/C=N/Nc2nnc(Cc3ccc(OC)c(OC)c3)c(=O)[nH]2)cc1OC`, -0.159.
Under `Cc1cc2c3c(c1)C1(C(=O)N3C(C)(C)CC2C)C(C#N)=C(N)OC2=C1C(=O)CC(C)(C)C2` (stereo not given) stands 0.0667; under `Cc1cccc(-c2nc3ccccc3c(=O)n2NC(=O)c2cccnc2Cl)c1`, -0.115; under `COC(=O)CN1C(c2ccccc2O)Nc2ccc(Br)cc2C1c1ccccc1` (stereo not given), -0.181.
In turn, `Cc1ccc(NC(=O)c2ccc(S(=O)(=O)N3CCC(C)CC3)cc2)cc1` displayed a z-score of -0.171.
On to `Cc1cccc(N/C(=N\S(=O)(=O)c2ccccc2)C(F)(F)F)c1`, for which the z-score is -0.178.
Then `CCOC(=O)N1CCC(N(CCN(C)C)C(=S)Nc2ccccc2C)CC1`, with -0.427; and `CCOC(=O)CC(=O)CSc1nc(N)c(C#N)c(-c2ccc(Cl)cc2)c1C#N`, with -0.118; and `CC(C)CN(C(=O)CN1CCN(c2ccccc2F)CC1)c1c(N)n(CC(C)C)c(=O)[nH]c1=O`, with -0.397.
Under `COc1ccc(OC)c(NC(=O)C2CCN(S(=O)(=O)c3c(C)noc3C)CC2)c1` stands -0.208.
Then `O=C(NCCc1nc2ccccc2[nH]1)/C(=C/c1ccc2c(c1)OCO2)NC(=O)c1ccc(Cl)cc1Cl`, with -0.517; and `Cc1cc(C(F)(F)F)c(C#N)c(SCC(=O)Nc2nc3cc(Br)ccc3s2)n1`, with -0.218.
Turning to `CCNc1nc(NC(C)C)nc(Oc2ccc(OCc3ccccc3)nn2)n1`, the z-score is -0.842.
Compound `COc1cccc(C(c2nnnn2Cc2ccco2)N2CCN(c3cccc(C)c3C)CC2)c1OC` (stereo not given) registered a z-score of -0.191.
`c1cc2c(cc1CN1CCOCC1)OCO2`: the z-score is -0.0852.
Consider `CCCCn1c(Cc2ccccc2)n[nH]c1=S`, for which the z-score is 0.576.
Under `CCOc1nc(-c2ccc(C)cc2)ccc1-c1noc(COC)n1` stands -0.156.
Turning to `CC(=O)N1CCN(S(=O)(=O)c2ccc(S(=O)(=O)NCC(C)C)cc2)CC1`, the z-score was -0.0339.
Under `CCOC(=O)C1=C(C)N=C2SCCC(=O)N2C1c1cccs1` (stereo not given) stands -0.357.
Then `CCCCCCCOc1ccc(OC(=O)c2cccnc2)cc1`, with 0.168; and `COc1cccc(-n2c(SCC(=O)N3CCOCC3)nc3c([nH]c4ccccc43)c2=O)c1`, with 0.788; and `CN(CC(=O)Nn1cnnc1)S(=O)(=O)c1cc(Cl)ccc1Cl`, with -0.476.
Then `CCCOc1ccc2c3c(c(=O)oc2c1OCCC)CCCC3`, with 0.312; and `COc1cc2c(cc1NCc1ccccn1)oc1ccccc12`, with -0.0883.
The compound `CC(NC(=O)c1cccs1)C(=O)NC1=NCCS1` (stereo not given) yielded a z-score of -0.526.
Then `COc1cccc(NC(=O)CN2CCN(c3ccc(F)cc3)CC2)c1`, with -1.23; and `CCOc1ccccc1-n1c(SCC(=O)N2CCCc3ccccc32)nnc1-c1cccnc1`, with -0.703.
Take `CCN(CC)c1nc(N)c([N+](=O)[O-])c(NCCO)n1`: the z-score was -0.415.
Then `Cc1ccc(NC(NC(=O)Cc2ccccc2)C(Cl)(Cl)Cl)cc1` (stereo not given), with 0.671; and `CCOC(=O)/C=C1\SCC(=O)N1Cc1ccc(Br)cc1`, with -0.326; and `COc1ccc(N2CCN(C(=O)c3ccc(CS(=O)(=O)c4ccc(OC)cc4)o3)CC2)cc1`, with -0.067.
Under `COc1cc(OC)cc(C(=O)NCC(=O)OCC(=O)C(C)(C)C)c1` stands 0.0807; under `Cc1cc(=O)oc2cc(OCC#N)ccc12`, -0.163.
For `CCc1ccc(S(=O)(=O)NCCc2cn3ccsc3n2)s1`, the z-score came to 0.135.
Under `CCOC(=O)CSc1nnc(NC(=O)c2cccc(S(=O)(=O)N3CCCCCC3)c2)s1` stands -0.31; under `Cc1cc(=O)[nH]c(SCc2nc3ccc([N+](=O)[O-])cc3[nH]2)n1`, -0.173.
Compound `Cc1cccc(C(C)(C)C)c1OCCOCCN1CCCC1` came in with a z-score of 0.391.
With `Cc1cccc(OCc2nnc(NC(=O)c3cccs3)s2)c1`, the z-score was -0.0598.
`CCc1cccc(C)c1NC(=O)CSc1nc2ccc(N3C(=O)c4ccccc4C3=O)cc2s1` displayed a z-score of -0.494.
Take `COCCCNC(=S)NC(=O)c1ccccc1`: the z-score was -0.0478.
Under `CNCc1ccccc1Sc1ccc(O)c(O)c1` stands 0.113; under `Cc1ccc(-c2c(C#N)c(N)n(-c3ccc(C)cc3)c(=O)c2C#N)cc1`, -0.0302.
As to `Cc1c(C)c2cc3c4c(oc3c(C)c2oc1=O)CCCC4`, the z-score is -0.354.
Then `O=C(COC(=O)CN1C(=O)C2CCCCC2C1=O)NC1CCS(=O)(=O)C1` (stereo not given), with -0.413; and `CCN(CC)S(=O)(=O)c1cccc(C(=O)/C=C2/N(C)c3ccccc3C2(C)C)c1`, with -0.269.
With `O=C(O)c1nn2c(C(F)(F)F)cc(-c3cccs3)nc2c1Cl`, the z-score was -0.169.
Regarding `COc1ccc(N(C(=O)c2cccc(OC)c2OC)C2C=CS(=O)(=O)C2)c(OC)c1` (stereo not given), the z-score was -0.127.
Then `CC(C)Oc1ccc(CN=C(N)N=C(N)N)cc1Cl`, with -0.171.
Under `CCC(C)C(=O)Nc1c2c(nc3c1CCC3)CCCC2` (stereo not given) stands -0.0844; under `Cc1ccc(-n2c(C)cc(/C=N\NC(=O)CC(=O)NC(C)C)c2C)cc1`, 0.919; under `CCCCn1c(SCC(=O)c2ccccc2)nc2ccsc2c1=O`, -0.633.
Regarding `CCCc1cc(=O)[nH]c(SC(CC)C(=O)Nc2ccccc2C#N)n1` (stereo not given), the z-score was -0.143.
`CCCCOC(=O)Nc1ccc(C(C)C)cc1` had a z-score of -0.173.
Then `Cc1ccc(Oc2ccccc2/C=C2\SC(=O)N(C)C2=O)cc1`, with 0.131; and `CCOc1ccc(NCCC#N)cc1`, with 0.967.
As for `Nn1c(Cc2ccccc2F)nnc1SCCOc1ccc(Cl)cc1`, the z-score is -0.221.
Under `CC1(C)COC(c2ccc(F)c([N+](=O)[O-])c2)=N1` stands -0.176; under `O=C(CP(=O)(CO)CO)c1ccc(Cl)cc1`, 0.307; under `Cc1ccc(S(=O)(=O)N2CCCC2C(=O)Nn2cnnc2)cc1` (stereo not given), 0.562.
With `O=C(CSc1nnc(COc2ccccc2)o1)N1CCN(c2ccccc2)CC1`, the z-score was -0.404.
Then `O=C(Nc1ccc2oc(-c3cccc(F)c3)nc2c1)c1ccccc1F`, with -0.302.
Consider `O=C(CCn1nc(-c2ccccc2)ccc1=O)N1CCCC1`, for which the z-score turned out to be 0.688.
Turning to `Cc1ccc(S(=O)(=O)N(C(=O)c2ccncc2)c2ccc3oc4c(c3c2)CCCC4)cc1[N+](=O)[O-]`, the z-score came out at 0.393.
Take `Cc1cc(C(=O)CSc2nnc(-c3ccc(Cl)cc3)n2C)c(C)n1CC1CCCO1` (stereo not given): the z-score was -0.132.
